# This is one part of the list.
# Assays:
# Assay in all cases: glycan array binding signal (z-score within array); higher = stronger binding
# Conditions in all cases: glycan notation: IUPAC condensed, linker removed
# Fuc(a1-2)Gal = molecular target: Fuc(a1-2)Gal
# Outline: (§1)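 Arrays were curated from the Consortium for Functional Glycomics database, 3228 in total, and kept only where the protein sequence was available. Binding is expressed as a within-array Z-score. This score was averaged across arrays of the same protein sequence at different concentrations or buffers and across linkers, and negative values can be read as non-binding.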
# Fuc(a1-2)Gal(b1-3)GalNAc = molecular target: Fuc(a1-2)Gal(b1-3)GalNAc
# Outline: as §1
# [1] = molecular target: Fuc(a1-2)Gal(b1-3)GalNAc(a1-3)[Fuc(a1-2)]Gal(b1-4)Glc
# Outline: as §1
# [2] = molecular target: Fuc(a1-2)Gal(b1-3)GalNAc(a1-3)[Fuc(a1-2)]Gal(b1-4)GlcNAc
# Outline: as §1
# [3] = molecular target: Fuc(a1-2)Gal(b1-3)GalNAc(b1-3)Gal
# Outline: as §1
# [4] = molecular target: Fuc(a1-2)Gal(b1-3)GalNAc(b1-3)Gal(a1-4)Gal(b1-4)Glc
# Outline: as §1
# [5] = molecular target: Fuc(a1-2)Gal(b1-3)GalNAc(b1-4)[Neu5Ac(a2-3)]Gal(b1-4)Glc
# Outline: as §1
# Fuc(a1-2)Gal(b1-3)GlcNAc = molecular target: Fuc(a1-2)Gal(b1-3)GlcNAc
# Outline: as §1
# [6] = molecular target: Fuc(a1-2)Gal(b1-3)GlcNAc(b1-2)Man(a1-3)[Fuc(a1-2)Gal(b1-3)GlcNAc(b1-2)Man(a1-6)]Man(b1-4)GlcNAc(b1-4)GlcNAc
# Outline: as §1
# [7] = molecular target: Fuc(a1-2)Gal(b1-3)GlcNAc(b1-2)Man(a1-3)[Fuc(a1-2)Gal(b1-3)GlcNAc(b1-2)Man(a1-6)]Man(b1-4)GlcNAc(b1-4)[Fuc(a1-6)]GlcNAc
# Outline: as §1
# [8] = molecular target: Fuc(a1-2)Gal(b1-3)GlcNAc(b1-3)Gal(b1-4)Glc
# Outline: as §1
# [9] = molecular target: Fuc(a1-2)Gal(b1-3)GlcNAc(b1-3)GalNAc
# Outline: as §1
# [10] = molecular target: Fuc(a1-2)Gal(b1-3)GlcNAc(b1-3)[Fuc(a1-2)Gal(b1-3)GlcNAc(b1-6)]GalNAc
# Outline: as §1
# [11] = molecular target: Fuc(a1-2)Gal(b1-3)GlcNAc(b1-3)[Gal(b1-4)GlcNAc(b1-6)]Gal(b1-4)Glc
# Outline: as §1
# [12] = molecular target: Fuc(a1-2)Gal(b1-3)GlcNAc(b1-3)[Neu5Ac(a2-6)Gal(b1-4)GlcNAc(b1-6)]Gal(b1-4)Glc
# Outline: as §1
# [13] = molecular target: Fuc(a1-2)Gal(b1-3)GlcNAc6S
# Outline: as §1
# [14] = molecular target: Fuc(a1-2)Gal(b1-3)[Fuc(a1-4)]GlcNAc
# Outline: as §1
# [15] = molecular target: Fuc(a1-2)Gal(b1-3)[Fuc(a1-4)]GlcNAc(b1-2)Man(a1-3)[Fuc(a1-2)Gal(b1-3)[Fuc(a1-4)]GlcNAc(b1-2)Man(a1-3)]Man(b1-4)GlcNAc(b1-4)GlcNAc
# Outline: as §1
# [16] = molecular target: Fuc(a1-2)Gal(b1-3)[Fuc(a1-4)]GlcNAc(b1-2)Man(a1-3)[Fuc(a1-2)Gal(b1-3)[Fuc(a1-4)]GlcNAc(b1-2)Man(a1-6)]Man(b1-4)GlcNAc(b1-4)[Fuc(a1-6)]GlcNAc(b1-4)[Fuc(a1-6)]GlcNAc
# Outline: as §1
# [17] = molecular target: Fuc(a1-2)Gal(b1-3)[Fuc(a1-4)]GlcNAc(b1-3)[Fuc(a1-3)[Gal(b1-4)]GlcNAc(b1-6)]Gal(b1-4)Glc
# Outline: as §1
# [18] = molecular target: Fuc(a1-2)Gal(b1-3)[Fuc(a1-4)]GlcNAc(b1-3)[Gal(b1-4)GlcNAc(b1-6)]Gal(b1-4)Glc
# Outline: as §1
# [19] = molecular target: Fuc(a1-2)Gal(b1-4)Fuc(a1-3)]GlcNAc(b1-2)Man(a1-3)[Fuc(a1-2)Gal(b1-4)[Fuc(a1-3)]GlcNAc(b1-2)Man(a1-6)]Man(b1-4)GlcNAc(b1-4)GlcNAc
# Outline: as §1
# Fuc(a1-2)Gal(b1-4)Glc = molecular target: Fuc(a1-2)Gal(b1-4)Glc
# Outline: as §1
# Fuc(a1-2)Gal(b1-4)Glc6S = molecular target: Fuc(a1-2)Gal(b1-4)Glc6S
# Outline: as §1
# Fuc(a1-2)Gal(b1-4)GlcNAc = molecular target: Fuc(a1-2)Gal(b1-4)GlcNAc
# Outline: as §1
# [20] = molecular target: Fuc(a1-2)Gal(b1-4)GlcNAc(b1-2)Man
# Outline: as §1
# [21] = molecular target: Fuc(a1-2)Gal(b1-4)GlcNAc(b1-2)Man(a1-3)[Fuc(a1-2)Gal(b1-4)GlcNAc(b1-2)Man(a1-6)]Man(b1-4)GlcNAc(b1-4)GlcNAc
# Outline: as §1
# [22] = molecular target: Fuc(a1-2)Gal(b1-4)GlcNAc(b1-2)Man(a1-3)[Fuc(a1-2)Gal(b1-4)GlcNAc(b1-2)Man(a1-6)]Man(b1-4)GlcNAc(b1-4)[Fuc(a1-6)]GlcNAc
# Outline: as §1
# [23] = molecular target: Fuc(a1-2)Gal(b1-4)GlcNAc(b1-2)[Fuc(a1-2)Gal(b1-4)GlcNAc(b1-4)]Man(a1-3)[Fuc(a1-2)Gal(b1-4)GlcNAc(b1-2)Man(a1-6)]Man(b1-4)GlcNAc(b1-4)GlcNAc
# Outline: as §1
# [24] = molecular target: Fuc(a1-2)Gal(b1-4)GlcNAc(b1-3)Gal(b1-4)GlcNAc
# Outline: as §1
# [25] = molecular target: Fuc(a1-2)Gal(b1-4)GlcNAc(b1-3)Gal(b1-4)GlcNAc(b1-2)Man(a1-3)[Fuc(a1-2)Gal(b1-4)GlcNAc(b1-3)Gal(b1-4)GlcNAc(b1-2)Man(a1-6)]Man(b1-4)GlcNAc(b1-4)GlcNAc
# Outline: as §1
# [26] = molecular target: Fuc(a1-2)Gal(b1-4)GlcNAc(b1-3)Gal(b1-4)GlcNAc(b1-3)Gal(b1-4)GlcNAc
# Outline: as §1
# [27] = molecular target: Fuc(a1-2)Gal(b1-4)GlcNAc(b1-3)GalNAc
# Outline: as §1
# [28] = molecular target: Fuc(a1-2)Gal(b1-4)GlcNAc(b1-3)[Fuc(a1-2)Gal(b1-4)GlcNAc(b1-6)]GalNAc
# Outline: as §1
# [29] = molecular target: Fuc(a1-2)Gal(b1-4)GlcNAc(b1-3)[Fuc(a1-3)[Gal(b1-4)]GlcNAc(b1-6)]Gal(b1-4)Glc
# Outline: as §1
# [30] = molecular target: Fuc(a1-2)Gal(b1-4)GlcNAc(b1-6)GalNAc
# Outline: as §1
# [31] = molecular target: Fuc(a1-2)Gal(b1-4)GlcNAc6S
# Outline: as §1
# [32] = molecular target: Fuc(a1-2)Gal(b1-4)[Fuc(a1-3)]GlcNAc
# Outline: as §1
# [33] = molecular target: Fuc(a1-2)Gal(b1-4)[Fuc(a1-3)]GlcNAc(b1-2)Man(a1-3)[Fuc(a1-2)Gal(b1-4)[Fuc(a1-3)]GlcNAc(b1-2)Man(a1-6)]Man(b1-4)GlcNAc(b1-4)[Fuc(a1-6)]GlcNAc
# Outline: as §1
# [34] = molecular target: Fuc(a1-2)Gal(b1-4)[Fuc(a1-3)]GlcNAc(b1-2)[Fuc(a1-2)Gal(b1-4)[Fuc(a1-3)]GlcNAc(b1-4)]Man(a1-3)[Fuc(a1-2)Gal(b1-4)[Fuc(a1-3)]GlcNAc(b1-2)Man(a1-6)]Man(b1-4)GlcNAc(b1-4)GlcNAc
# Outline: as §1
# [35] = molecular target: Fuc(a1-2)Gal(b1-4)[Fuc(a1-3)]GlcNAc(b1-3)Gal(b1-4)[Fuc(a1-3)]GlcNAc
# Outline: as §1
# [36] = molecular target: Fuc(a1-2)Gal(b1-4)[Fuc(a1-3)]GlcNAc(b1-3)Gal(b1-4)[Fuc(a1-3)]GlcNAc(b1-3)Gal(b1-4)[Fuc(a1-3)]GlcNAc
# Outline: as §1
# [37] = molecular target: Fuc(a1-2)Gal(b1-4)[Fuc(a1-3)]GlcNAc(b1-3)GalNAc
# Outline: as §1
# [38] = molecular target: Fuc(a1-2)Gal(b1-4)[Fuc(a1-3)]GlcNAc(b1-3)[Neu5Ac(a2-6)Gal(b1-4)GlcNAc(b1-6)]Gal(b1-4)Glc
# Outline: as §1
# [39] = molecular target: Fuc(a1-2)Gal3S(b1-4)GlcNAc
# Outline: as §1
binder,measurement,setting,value
Banana lectin (Musa acuminata) (protein) MNGAIKVGAWGGNGGSAFDMGPAYRIISVKIFSGDVVDGVDVTFTYYGKTETRHYGGSGGTPHEIVLQEGEYLVGMAGEVANYHGAVVLGKLGFSTNKKAYGPFGNTGGTPFSLPIAAGKISGFFGRGGKFLDAIGVYLEPLEHHHHHH,glycan array binding signal (z-score),Fuc(a1-2)Gal,-0.209
same,glycan array binding signal (z-score),Fuc(a1-2)Gal(b1-3)GalNAc,-0.203
same,glycan array binding signal (z-score),[1],-0.212
same,glycan array binding signal (z-score),[2],-0.221
same,glycan array binding signal (z-score),[3],-0.202
same,glycan array binding signal (z-score),[4],-0.23
same,glycan array binding signal (z-score),[5],-0.133
same,glycan array binding signal (z-score),Fuc(a1-2)Gal(b1-3)GlcNAc,-0.209
same,glycan array binding signal (z-score),[6],0.268
same,glycan array binding signal (z-score),[7],0.041
same,glycan array binding signal (z-score),[8],-0.179
same,glycan array binding signal (z-score),[9],-0.216
same,glycan array binding signal (z-score),[10],-0.239
same,glycan array binding signal (z-score),[11],-0.206
same,glycan array binding signal (z-score),[12],-0.218
same,glycan array binding signal (z-score),[13],-0.221
same,glycan array binding signal (z-score),[14],-0.19
same,glycan array binding signal (z-score),[15],-0.174
same,glycan array binding signal (z-score),[16],0.022
same,glycan array binding signal (z-score),[17],-0.217
same,glycan array binding signal (z-score),[18],-0.232
same,glycan array binding signal (z-score),[19],-0.096
same,glycan array binding signal (z-score),Fuc(a1-2)Gal(b1-4)Glc,-0.217
same,glycan array binding signal (z-score),Fuc(a1-2)Gal(b1-4)Glc6S,-0.209
same,glycan array binding signal (z-score),Fuc(a1-2)Gal(b1-4)GlcNAc,-0.207
same,glycan array binding signal (z-score),[20],-0.222
same,glycan array binding signal (z-score),[21],0.303
same,glycan array binding signal (z-score),[22],0.084
same,glycan array binding signal (z-score),[23],0.042
same,glycan array binding signal (z-score),[24],-0.21
same,glycan array binding signal (z-score),[25],-0.109
same,glycan array binding signal (z-score),[26],-0.196
same,glycan array binding signal (z-score),[27],-0.303
same,glycan array binding signal (z-score),[28],-0.219
same,glycan array binding signal (z-score),[29],-0.2
same,glycan array binding signal (z-score),[30],-0.21
same,glycan array binding signal (z-score),[31],-0.212
same,glycan array binding signal (z-score),[32],-0.205
same,glycan array binding signal (z-score),[33],-0.19
same,glycan array binding signal (z-score),[34],-0.177
same,glycan array binding signal (z-score),[35],-0.19
same,glycan array binding signal (z-score),[36],-0.178
same,glycan array binding signal (z-score),[37],-0.192
same,glycan array binding signal (z-score),[38],-0.206
same,glycan array binding signal (z-score),[39],-0.164
